Measured values from PMC9911399, “Two distinct binding modes provide the RNA-binding protein RbFox with extraordinary sequence specificity”.
Residue numbers refer to the chain shown, from its start. Some of the results follow.

T1: RBFOX1 RRM (Homo sapiens, UniProt Q9NWB1 109-208)
T1 sequence: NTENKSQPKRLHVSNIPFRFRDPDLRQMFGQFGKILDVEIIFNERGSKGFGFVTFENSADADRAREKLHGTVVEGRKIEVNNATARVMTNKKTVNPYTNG

B1: UAUCAAG (DNA:RNA)
RNA: GGGAGACCGGAAUUCAGAUUGUCCUAUCAAGUUAAAUCCCGUCGUAGCCACCA
DNA 1: CAATCTGAATTCCGGTCTCCC
DNA 2: TGGTGGCTACGACGGGATT
B2: AAGGGCU (DNA:RNA)
RNA: B1 RNA with U25A, U27G, C28G, A29G, A30C, G31U
DNA 1: CAATCTGAATTCCGGTCTCCC
DNA 2: TGGTGGCTACGACGGGATT
B3: UGUUGAU (DNA:RNA)
RNA: B1 RNA with A26G, C28U, A29G, G31U
DNA 1: CAATCTGAATTCCGGTCTCCC
DNA 2: TGGTGGCTACGACGGGATT
B4: CUUCUCU (DNA:RNA)
RNA: B1 RNA with U25C, A26U, A29U, A30C, G31U
DNA 1: CAATCTGAATTCCGGTCTCCC
DNA 2: TGGTGGCTACGACGGGATT
B5: CAAAAAG (DNA:RNA)
RNA: B1 RNA with U25C, U27A, C28A
DNA 1: CAATCTGAATTCCGGTCTCCC
DNA 2: TGGTGGCTACGACGGGATT
B6: GCAUUUG (DNA:RNA)
RNA: B1 RNA with U25G, A26C, U27A, C28U, A29U, A30U
DNA 1: CAATCTGAATTCCGGTCTCCC
DNA 2: TGGTGGCTACGACGGGATT
B7: CAACCAU (DNA:RNA)
RNA: B1 RNA with U25C, U27A, A29C, G31U
DNA 1: CAATCTGAATTCCGGTCTCCC
DNA 2: TGGTGGCTACGACGGGATT
B8: GCGCACU (DNA:RNA)
RNA: B1 RNA with U25G, A26C, U27G, A30C, G31U
DNA 1: CAATCTGAATTCCGGTCTCCC
DNA 2: TGGTGGCTACGACGGGATT
B9: UUUUUUG (DNA:RNA)
RNA: B1 RNA with A26U, C28U, A29U, A30U
DNA 1: CAATCTGAATTCCGGTCTCCC
DNA 2: TGGTGGCTACGACGGGATT

What follows are binders tested against T1, RBFOX1 RRM (assay: EMSA; HiTS-Eq, 1 nM pool, 10 min; buffer printed only for the single-RNA assays: 10 mM Tris pH 7.5, 150 mM NaCl, 3.4 mM EDTA, 0.001% NP-40, 30 C). Settings: tags: His6 N-terminal (pET28a); label: 5' 32P.
Summary of the method: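 Purified wild-type or mutant RbFox RRM at increasing concentrations was equilibrated with 1 nM of 5′-radiolabelled RNA carrying 7 randomized nucleotides for 10 min in 50 µL. Unbound RNA was separated by 8% native PAGE and sequenced. Relative association constants came from read-count changes of each RNA species compared with the control reaction, normalised to the cognate motif.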
For B1, the binding signal was 0.00843 KA relative to UGCAUGU.
With B2 the binding signal was 0.0102 KA relative to UGCAUGU.
B3 was tested, and the binding signal was 0.0302 KA relative to UGCAUGU.
In the case of B4, the binding signal is reported as 0.00925 KA relative to UGCAUGU.
In the case of B5, the binding signal is reported as 0.000641 KA relative to UGCAUGU.
With B6 the binding signal was 0.0139 KA relative to UGCAUGU.
B7 was tested, and the binding signal was 0.000819 KA relative to UGCAUGU.
For B8, the binding signal was 0.0119 KA relative to UGCAUGU.
With B9 the binding signal was 0.0341 KA relative to UGCAUGU.
